Measured values: the supplement of paper PMC8728848
The other results are listed elsewhere or left out.

Columns and labels:
Assay in all cases: glycan array binding signal (z-score within array); higher = stronger binding
Settings in all cases: glycan notation: IUPAC condensed, linker removed
[1] = biological target: Neu5Ac(a2-3)Gal(b1-4)GlcNAc(b1-3)Gal(b1-4)GlcNAc(b1-3)Gal(b1-4)GlcNAc
How it was run: (§1)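 From the Consortium for Functional Glycomics database, 3228 arrays were curated, keeping only those whose protein sequence was available. Binding is given as a within-array Z-score averaged across arrays sharing a protein sequence and across linkers. Negative Z-scores can be read as non-binding.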

[2] = biological target: Neu5Ac(a2-3)Gal(b1-4)GlcNAc(b1-3)Gal(b1-4)GlcNAc(b1-3)Gal(b1-4)GlcNAc(b1-2)Man(a1-3)[Neu5Ac(a2-3)Gal(b1-4)GlcNAc(b1-3)Gal(b1-4)GlcNAc(b1-3)Gal(b1-4)GlcNAc(b1-2)Man(a1-6)]GalNAc
How it was run: as §1

[3] = biological target: Neu5Ac(a2-3)Gal(b1-4)GlcNAc(b1-3)Gal(b1-4)GlcNAc(b1-3)GalNAc
How it was run: as §1

[4] = biological target: Neu5Ac(a2-3)Gal(b1-4)GlcNAc(b1-3)Gal(b1-4)GlcNAc(b1-3)[Neu5Ac(a2-3)Gal(b1-4)GlcNAc(b1-3)Gal(b1-4)GlcNAc(b1-6)]GalNAc
How it was run: as §1

[5] = biological target: Neu5Ac(a2-3)Gal(b1-4)GlcNAc(b1-3)Gal(b1-4)GlcNAc(b1-6)[Gal(b1-3)]GalNAc
How it was run: as §1

[6] = biological target: Neu5Ac(a2-3)Gal(b1-4)GlcNAc(b1-3)Gal(b1-4)[Fuc(a1-3)]GlcNAc
How it was run: as §1

[7] = biological target: Neu5Ac(a2-3)Gal(b1-4)GlcNAc(b1-3)GalNAc
How it was run: as §1

[8] = biological target: Neu5Ac(a2-3)Gal(b1-4)GlcNAc(b1-3)[Neu5Ac(a2-3)Gal(b1-4)GlcNAc(b1-6)]GalNAc
How it was run: as §1

[9] = biological target: Neu5Ac(a2-3)Gal(b1-4)GlcNAc(b1-6)GalNAc
How it was run: as §1

[10] = biological target: Neu5Ac(a2-3)Gal(b1-4)GlcNAc(b1-6)[Gal(b1-3)]GalNAc
How it was run: as §1

[11] = biological target: Neu5Ac(a2-3)Gal(b1-4)GlcNAc(b1-6)[Neu5Ac(a2-3)Gal(b1-3)]GalNAc
How it was run: as §1

[12] = biological target: Neu5Ac(a2-3)Gal(b1-4)GlcNAc6S
How it was run: as §1

[13] = biological target: Neu5Ac(a2-3)Gal(b1-4)[Fuc(a1-3)]GlcNAc
How it was run: as §1

[14] = biological target: Neu5Ac(a2-3)Gal(b1-4)[Fuc(a1-3)]GlcNAc(b1-2)Man
How it was run: as §1

[15] = biological target: Neu5Ac(a2-3)Gal(b1-4)[Fuc(a1-3)]GlcNAc(b1-3)Gal
How it was run: as §1

[16] = biological target: Neu5Ac(a2-3)Gal(b1-4)[Fuc(a1-3)]GlcNAc(b1-3)Gal(b1-4)GlcNAc
How it was run: as §1

[17] = biological target: Neu5Ac(a2-3)Gal(b1-4)[Fuc(a1-3)]GlcNAc(b1-3)Gal(b1-4)[Fuc(a1-3)]GlcNAc(b1-3)Gal(b1-4)[Fuc(a1-3)]GlcNAc
How it was run: as §1

[18] = biological target: Neu5Ac(a2-3)Gal(b1-4)[Fuc(a1-3)]GlcNAc(b1-3)GalNAc
How it was run: as §1

[19] = biological target: Neu5Ac(a2-3)Gal(b1-4)[Fuc(a1-3)]GlcNAc(b1-6)[Gal(b1-3)]GalNAc
How it was run: as §1

[20] = biological target: Neu5Ac(a2-3)Gal(b1-4)[Fuc(a1-3)]GlcNAc(b1-6)[Neu5Ac(a2-3)Gal(b1-3)]GalNAc
How it was run: as §1

[21] = biological target: Neu5Ac(a2-3)Gal(b1-4)[Fuc(a1-3)]GlcNAc6S
How it was run: as §1

[22] = biological target: Neu5Ac(a2-3)Gal6S(b1-4)GlcNAc
How it was run: as §1

[23] = biological target: Neu5Ac(a2-3)Gal6S(b1-4)[Fuc(a1-3)]GlcNAc
How it was run: as §1

Neu5Ac(a2-3)GalNAc = biological target: Neu5Ac(a2-3)GalNAc
How it was run: as §1

[24] = biological target: Neu5Ac(a2-3)GalNAc(b1-4)GlcNAc
How it was run: as §1

[25] = biological target: Neu5Ac(a2-3)[GalNAc(b1-4)]Gal(b1-4)Glc
How it was run: as §1

[26] = biological target: Neu5Ac(a2-3)[GalNAc(b1-4)]Gal(b1-4)GlcNAc
How it was run: as §1

[27] = biological target: Neu5Ac(a2-3)[GalNAc(b1-4)]Gal(b1-4)GlcNAc(b1-3)GalNAc
How it was run: as §1

[28] = biological target: Neu5Ac(a2-3)[Neu5Ac(a2-6)]GalNAc
How it was run: as §1

Neu5Ac(a2-6)Gal = biological target: Neu5Ac(a2-6)Gal
How it was run: as §1

[29] = biological target: Neu5Ac(a2-6)Gal(b1-3)GlcNAc(b1-3)[Gal(b1-4)GlcNAc(b1-6)]Gal(b1-4)Glc
How it was run: as §1

Neu5Ac(a2-6)Gal(b1-4)Glc = biological target: Neu5Ac(a2-6)Gal(b1-4)Glc
How it was run: as §1

[30] = biological target: Neu5Ac(a2-6)Gal(b1-4)GlcNAc
How it was run: as §1

[31] = biological target: Neu5Ac(a2-6)Gal(b1-4)GlcNAc(b1-2)Man
How it was run: as §1

[32] = biological target: Neu5Ac(a2-6)Gal(b1-4)GlcNAc(b1-2)Man(a1-3)Man(b1-4)GlcNAc(b1-4)GlcNAc
How it was run: as §1

[33] = biological target: Neu5Ac(a2-6)Gal(b1-4)GlcNAc(b1-2)Man(a1-3)[Gal(b1-4)GlcNAc(b1-2)Man(a1-6)]Man(b1-4)GlcNAc(b1-4)GlcNAc
How it was run: as §1

[34] = biological target: Neu5Ac(a2-6)Gal(b1-4)GlcNAc(b1-2)Man(a1-3)[GlcNAc(b1-2)Man(a1-6)]Man(b1-4)GlcNAc(b1-4)GlcNAc
How it was run: as §1

[35] = biological target: Neu5Ac(a2-6)Gal(b1-4)GlcNAc(b1-2)Man(a1-3)[GlcNAc(b1-4)][Neu5Ac(a2-6)Gal(b1-4)GlcNAc(b1-2)Man(a1-6)]Man(b1-4)GlcNAc(b1-4)GlcNAc
How it was run: as §1

B1: PX9937D-bvu-500-26-500 (Bacteroides vulgatus) (protein)
chain: DPVSDITDLNYWKTPEQFDSFVFGLHSRFRSHSWNMFLLGEARSDVFGGIPFGGEATQGMERFPYNTLNAENPGISGFGDLYQNINQMNLFISRTLHTDVLTESARNYYLGQVYGLRAYYMYQLYRSWGDVVFTEEPSLGFEVGKLAKAATPAAEIFEQVKKDIESSLSYFGSDYTIKEKKSLWSKAATLMLKADVYLWSAHRDGGEGDARTAKNALVDIQNNISRSNLDLMDTYQGVFAYDNKGNKEIIFTIHNELFEYNLWNGNNDLFPQADYLGKFYNADGTLINTSVENNFGIMRLMVKLENFKKFLPGDTRRDVTLKDVYNKVENGKLELVGVYPHKYWGVMNGSTRVRCDDYPIYRYSDLLLMLAEAKVLLGEDPATEINRVRRRAFGDAYDASTVGFPNQEVDKRPADAVLQERLFEFMLEGKRWYDLRRFGDSYVLDYTPAEPARLLWPINQGALTNNPLLKQTVGY
[1]
  glycan array binding signal (z-score): -0.245
[2]
  glycan array binding signal (z-score): 0.765
[3]
  glycan array binding signal (z-score): -0.365
[4]
  glycan array binding signal (z-score): -0.355
[5]
  glycan array binding signal (z-score): -0.474
[6]
  glycan array binding signal (z-score): -0.034
[7]
  glycan array binding signal (z-score): -0.482
[8]
  glycan array binding signal (z-score): -0.02
[9]
  glycan array binding signal (z-score): -0.316
[10]
  glycan array binding signal (z-score): -0.694
[11]
  glycan array binding signal (z-score): -0.545
[12]
  glycan array binding signal (z-score): -0.569
[13]
  glycan array binding signal (z-score): -0.476
[14]
  glycan array binding signal (z-score): 0.114
[15]
  glycan array binding signal (z-score): -0.399
[16]
  glycan array binding signal (z-score): -0.399
[17]
  glycan array binding signal (z-score): -0.211
[18]
  glycan array binding signal (z-score): 0.525
[19]
  glycan array binding signal (z-score): -0.331
[20]
  glycan array binding signal (z-score): 0.402
[21]
  glycan array binding signal (z-score): -0.556
[22]
  glycan array binding signal (z-score): -0.307
[23]
  glycan array binding signal (z-score): -0.587
Neu5Ac(a2-3)GalNAc
  glycan array binding signal (z-score): -0.37
[24]
  glycan array binding signal (z-score): -0.504
[25]
  glycan array binding signal (z-score): 0.057
[26]
  glycan array binding signal (z-score): -0.037
[27]
  glycan array binding signal (z-score): -0.455
[28]
  glycan array binding signal (z-score): -0.396
Neu5Ac(a2-6)Gal
  glycan array binding signal (z-score): -0.104
[29]
  glycan array binding signal (z-score): 0.077
Neu5Ac(a2-6)Gal(b1-4)Glc
  glycan array binding signal (z-score): -0.37
[30]
  glycan array binding signal (z-score): -0.235
[31]
  glycan array binding signal (z-score): -0.072
[32]
  glycan array binding signal (z-score): -0.341
[33]
  glycan array binding signal (z-score): -0.298
[34]
  glycan array binding signal (z-score): -0.121
[35]
  glycan array binding signal (z-score): -0.405
